Experimental data: the supplement of paper PMC6609913
Where a name gives a salt, the structure may show the parent alone. ± gives the standard deviation of the averaged measurements. In all, about 1,300 compounds were measured (“normalised cell viability”: median about 1, lowest 2% from about 0.15 on). Some of the results follow.

Test system: V-C8 + BRCA2 (BRCA2-proficient hamster cells)
Assay: normalised cell viability (fraction of plate median); higher = more viable cells (less toxic)
Conditions: 5 µM
In short: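 Library drugs, held as 10 mM stocks in DMSO, were diluted to 5 μM in 100 μl medium and added to 96-well plates of V-C8 hamster cells, either lacking BRCA2 or with BRCA2 restored, 24 h after seeding. Plates ran for 3 days (screen 1) or 6 days (screen 2), alongside solvent-only wells. Viability came from a resazurin readout, median-plate normalised, as the mean of triplicate wells.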

SMILES	normalised cell viability (treatment time: 3 days)	normalised cell viability (treatment time: 6 days)
CC(=O)OCC(=O)[C@@]12N=C(C)O[C@@H]1C[C@H]1[C@@H]3CCC4=CC(=O)C=C[C@]4(C)[C@H]3[C@@H](O)C[C@@]12C [Deflazacort]	1.008 ± 0.0088	1.09 ± 0.035
O=C(O)Cc1sc(-c2ccccc2)nc1-c1ccc(Cl)cc1 [Fentiazac]	0.884 ± 0.062	0.981 ± 0.068
OCc1cc(C(O)CNCCCCCCOCCCCc2ccccc2)ccc1O (stereo unspecified) [Salmeterol]	0.881 ± 0.13	0.864 ± 0.019
CNCCC(Oc1ccc(C(F)(F)F)cc1)c1ccccc1 (stereo unspecified) [Fluoxetine hydrochloride]	0.91 ± 0.021	0.897 ± 0.094
Cc1nc2n(c(=O)c1CCN1CCC(c3noc4cc(F)ccc34)CC1)CCCC2 [Risperidone]	1.12 ± 0.019	1.06 ± 0.045
CC(=O)Nc1ccc(CC(=O)O)cc1 [Actarit]	1.038 ± 0.0059	1.07 ± 0.12
CCS(=O)(=O)CCn1c([N+](=O)[O-])cnc1C [Tinidazole]	1.007 ± 0.0078	1.06 ± 0.066
O=C1CCc2cc(OCCCCc3nnnn3C3CCCCC3)ccc2N1 [Cilostazol]	1.048 ± 0.0038	0.947 ± 0.17
O=P(O)(O)C(Cl)(Cl)P(=O)(O)O [Clodronate]	1.07 ± 0.05	1.01 ± 0.034
CCCCOc1cc(C(=O)NCCN(CC)CC)c2ccccc2n1 [Dibucaine]	1 ± 0.025	1 ± 0.094
CCC1=C(C)CN(C(=O)NCCc2ccc(S(=O)(=O)NC(=O)N[C@H]3CC[C@H](C)CC3)cc2)C1=O [Glimepiride]	1.22 ± 0.26	1.13 ± 0.068
CC1(C)NC(=O)N(c2ccc([N+](=O)[O-])c(C(F)(F)F)c2)C1=O [Nilutamide]	1.05 ± 0.081	0.975 ± 0.015
CCCCC(CC)CNC(=N)NC(=N)NCCCCCCNC(=N)NC(=N)NCC(CC)CCCC (stereo unspecified) [Alexidine dihydrochloride]	0.143 ± 0.002	0.149 ± 0.011
COC(=O)[C@@H]1[C@H]2C[C@H]3c4[nH]c5ccccc5c4CCN3C[C@@H]2CC[C@@H]1O [Yohimbine hydrochloride]	0.989 ± 0.056	1.02 ± 0.081
Nc1nc(=O)c2c([nH]1)NC[C@@H](CNc1ccc(C(=O)N[C@@H](CCC(=O)O)C(=O)O)cc1)N2C=O [Folinic acid calcium salt]	1.09 ± 0.0099	1.03 ± 0.055
COc1ccc2cc([C@@H](C)C(=O)O)ccc2c1 [(R) -Naproxen sodium salt]	0.919 ± 0.028	0.896 ± 0.091
CCOC(=O)C1=C[C@]2(CC)CCCN3CCc4c(n1c1ccccc41)[C@@H]32 [Vinpocetine]	0.995 ± 0.043	1.12 ± 0.092
COc1cnc(NS(=O)(=O)c2ccc(N)cc2)nc1 [Sulfameter]	1.07 ± 0.031	1.07 ± 0.26
O=C(O)CCC(=O)Nc1ccc(S(=O)(=O)Nc2nccs2)cc1 [Succinylsulfathiazole]	0.979 ± 0.083	1.04 ± 0.04
Cc1cccc(CN2CCN(C(c3ccccc3)c3ccc(Cl)cc3)CC2)c1 (stereo unspecified) [Meclozine dihydrochloride]	1.12 ± 0.075	1.07 ± 0.082
COc1ccccc1O [Guaiacol]	1.01 ± 0.038	1.03 ± 0.035
CCCCC(C)(O)C/C=C/[C@H]1[C@H](O)CC(=O)[C@@H]1CCCCCCC(=O)OC (mixture of isomers) [Misoprostol]	0.976 ± 0.09	1.03 ± 0.024
CNCCC(Oc1ccccc1OC)c1ccccc1 (stereo unspecified) [Nisoxetine hydrochloride]	1.04 ± 0.043	1.09 ± 0.049

SMILES	normalised cell viability (treatment time: 3 days)	normalised cell viability (treatment time: 6 days)
CN(C)[C@@H]1C(O)=C(C(N)=O)C(=O)[C@@]2(O)C(O)=C3C(=O)c4c(O)ccc(Cl)c4[C@@](C)(O)[C@H]3C[C@@H]12 [Chlortetracycline hydrochloride]	1.07 ± 0.042	0.9947 ± 0.0037
CC(=O)N(CC(C)C(=O)O)c1c(I)cc(I)c(N)c1I (stereo unspecified) [Iocetamic acid]	1.04 ± 0.024	0.986 ± 0.02
COc1cc(C(=O)NC2CCCNC2)cc(OC)c1OC (stereo unspecified) [Troxipide]	0.989 ± 0.027	0.983 ± 0.072
C[C@]12CC[C@@H]3c4ccc(O)cc4CC[C@H]3[C@@H]1CCC2=O [Estrone]	0.964 ± 0.026	1.07 ± 0.038
CC1CS(=O)(=O)CCN1/N=C/c1ccc([N+](=O)[O-])o1 (stereo unspecified) [Nifurtimox]	0.974 ± 0.035	0.927 ± 0.016
CN1CC2c3ccccc3Oc3ccc(Cl)cc3C2C1 (stereo unspecified) [Asenapine maleate]	1.03 ± 0.032	1.04 ± 0.068
c1ccc2[nH]c(-c3cscn3)nc2c1 [Tiabendazole]	1.05 ± 0.046	1 ± 0.019
CCCCCCCN(CC)CCCC(O)c1ccc(NS(C)(=O)=O)cc1 (stereo unspecified) [Ibutilide fumarate]	1.06 ± 0.046	1.17 ± 0.35
COc1ccc(-c2cc(=O)c3c(O)cc(O[C@@H]4O[C@H](CO[C@@H]5O[C@@H](C)[C@H](O)[C@@H](O)[C@H]5O)[C@@H](O)[C@H](O)[C@H]4O)cc3o2)cc1O [Diosmin]	1.09 ± 0.034	1.03 ± 0.033
CN(C)CCCO[C@@H]1[C@H]2OC(C)(C)O[C@H]2O[C@@H]1[C@H](O)CO [Amiprilose hydrochloride]	1.02 ± 0.031	1.04 ± 0.05
C[C@]12CC[C@@H]3c4ccc(O)cc4CC[C@H]3[C@@H]1C[C@@H](O)[C@@H]2O [Estriol]	1.12 ± 0.14	1.04 ± 0.067
CCc1cccc2c3c([nH]c12)C(CC)(CC(=O)O)OCC3 (stereo unspecified) [Etodolac]	0.922 ± 0.034	1.04 ± 0.084
Cc1noc(NS(=O)(=O)c2ccc(N)cc2)c1C [Sulfisoxazole]	1.12 ± 0.11	0.998 ± 0.045
CC[N+](CC)(CC)CCC(O)(c1ccccc1)C1CCCCC1 (stereo unspecified) [Tridihexethyl chloride]	0.905 ± 0.044	1 ± 0.065
CC1=C(CC(=O)O)c2cc(F)ccc2/C1=C\c1ccc([S+](C)[O-])cc1 (stereo unspecified) [Sulindac]	0.906 ± 0.042	0.972 ± 0.074
CC(Oc1c(Cl)cccc1Cl)C1=NCCN1 (stereo unspecified) [Lofexidine]	0.953 ± 0.013	0.98 ± 0.012
CCOC(=O)[C@H](CCc1ccccc1)N[C@@H](C)C(=O)N1CCC[C@H]1C(=O)O [Enalapril maleate]	0.99 ± 0.066	0.91 ± 0.079
CO/N=C(\C(=O)N[C@@H]1C(=O)N2C(C(=O)O)=C(C[N+]3(C)CCCC3)CS[C@H]12)c1csc(N)n1 [Cefepime hydrochloride]	0.933 ± 0.092	0.888 ± 0.098
CC(=O)Nc1ccc(O)cc1 [Acetaminophen]	0.948 ± 0.0095	1.1 ± 0.014
COc1ccc2[nH]c([S+]([O-])Cc3ncc(C)c(OC)c3C)nc2c1 (stereo unspecified) [Omeprazole]	0.971 ± 0.06	0.983 ± 0.12
Cc1cc(-n2c(=O)[nH]c(=O)n(C)c2=O)ccc1Oc1ccc(SC(F)(F)F)cc1 [Toltrazuril]	1.07 ± 0.05	1.07 ± 0.069
Cc1ccccc1N1C(=O)c2cc(S(N)(=O)=O)c(Cl)cc2NC1C (stereo unspecified) [Metolazone]	1.18 ± 0.062	1.07 ± 0.065
OCCOCCN1CCN(C(c2ccccc2)c2ccc(Cl)cc2)CC1 (stereo unspecified) [Hydroxyzine dihydrochloride]	1.14 ± 0.051	1.1 ± 0.087

SMILES	normalised cell viability (treatment time: 3 days)	normalised cell viability (treatment time: 6 days)
C=CC1=C(C(=O)O)N2C(=O)[C@@H](NC(=O)/C(=N\OCC(=O)O)c3csc(N)n3)[C@H]2SC1 [Cefixime]	1.02 ± 0.036	1.06 ± 0.042
Nc1cc(-c2ccncc2)c[nH]c1=O [Amrinone]	0.934 ± 0.072	0.851 ± 0.077
c1ccc2c(c1)CCCc1cc(NCCN3CCOCC3)nnc1-2	0.803 ± 0.038	0.87 ± 0.091
COc1ccc(C[C@@H]2c3cc(OC)c(OC)cc3CC[N@+]2(C)CCC(=O)OCCCCCOC(=O)CC[N@@+]2(C)CCc3cc(OC)c(OC)cc3[C@H]2Cc2ccc(OC)c(OC)c2)cc1OC [Cisatracurium besylate]	0.918 ± 0.088	0.916 ± 0.059
CC(N)C12CC3CC(CC(C3)C1)C2 (stereo unspecified) [Rimantadine Hydrochloride]	1.05 ± 0.073	1.022 ± 0.0099
CCC(=O)OCC(=O)[C@@]1(OC(=O)CC)[C@H](C)C[C@H]2[C@H]3[C@H]([C@@H](O)C[C@@]21C)[C@@]1(C)C=CC(=O)C=C1C[C@H]3Cl [Alclometasone dipropionate]	0.932 ± 0.084	1.07 ± 0.048
CN(CCOc1ccc(CC2SC(=O)NC2=O)cc1)c1ccccn1 (stereo unspecified) [Rosiglitazone Hydrochloride]	1.04 ± 0.086	1.05 ± 0.088
CCCc1nc(C(C)(C)O)c(C(=O)O)n1Cc1ccc(-c2ccccc2-c2nnn[nH]2)cc1 [Olmesartan]	1.03 ± 0.047	0.923 ± 0.087
N=C(N)N/N=C/c1c(Cl)cccc1Cl [Guanabenz acetate]	1.1 ± 0.022	1.01 ± 0.082
OC(CCN1CCCCC1)(c1ccccc1)C1CCCCC1 (stereo unspecified) [Trihexyphenidyl-D,L Hydrochloride]	1.24 ± 0.19	1.03 ± 0.056
CN(C)CCOC(=O)COc1ccc(Cl)cc1 [Meclofenoxate hydrochloride]	1.02 ± 0.029	0.985 ± 0.046
CC(Oc1ccccc1)C(=O)N[C@@H]1C(=O)N2[C@@H]1SC(C)(C)[C@@H]2C(=O)O (stereo partly specified) [Phenethicillin potassium salt]	0.942 ± 0.0098	0.975 ± 0.085
COc1ccc(C(=O)NCc2ccc(OCCN(C)C)cc2)cc1OC [Itopride]	0.924 ± 0.1	0.984 ± 0.053
N[C@@H](C(=O)N[C@@H]1C(=O)N2C(C(=O)O)=C(Cl)CS[C@H]12)c1ccccc1 [Cefaclor hydrate]	0.9927 ± 0.0084	1.02 ± 0.08
O=C1c2ccccc2S(=O)(=O)N1CCCCN1CCN(c2ncccn2)CC1 [Ipsapirone]	1 ± 0.032	1.14 ± 0.077
Cn1c([N+](=O)[O-])cnc1COC(N)=O [Ronidazole]	0.924 ± 0.017	0.91 ± 0.062
CN(C)[C@@H]1C(O)=C(C(N)=O)C(=O)[C@@]2(O)C(O)=C3C(=O)c4c(O)ccc(Cl)c4[C@@H](O)[C@H]3C[C@@H]12 [Demeclocycline hydrochloride]	0.997 ± 0.0086	1.15 ± 0.28
Clc1ccc(COC(Cn2ccnc2)c2ccc(Cl)cc2Cl)c(Cl)c1 (stereo unspecified) [Miconazole]	0.899 ± 0.034	0.753 ± 0.0086
Cc1cc(=O)n(-c2ccccc2)n1C [Antipyrine]	0.997 ± 0.038	1.02 ± 0.046
NC12CC3CC(CC(C3)C1)C2 [Adamantamine fumarate]	0.885 ± 0.035	0.95 ± 0.053
Cc1ccc(-c2ncc(Cl)cc2-c2ccc(S(C)(=O)=O)cc2)cn1 [Etoricoxib]	1.04 ± 0.11	0.994 ± 0.091
CC1CCc2c(N3CCC(O)CC3)c(F)cc3c(=O)c(C(=O)O)cn1c23 (stereo unspecified) [Nadifloxacin]	0.943 ± 0.06	0.916 ± 0.066
